Counter-ions that a name gives are not always drawn. Like-named read-outs stand apart in the source and are kept apart here.
How the values were obtained:
Test in all cases: cells
[1] = tested on: MDA-MB-468 basal breast cancer cell line; settings: Homo sapiens, MDA-MB-468, 120 h
[2] = tested on: SW620 colon cancer cell line; settings: Homo sapiens, SW-620, 120 h, read-out: Cell Line GI50 Range SW-620
[3] = tested on: A549 lung cancer cell line; settings: Homo sapiens, A549, 120 h, read-out: Cell Line GI50 Range A-549
[4] = tested on: MCF-7 luminal breast cancer cell line; settings: Homo sapiens, MCF7, 120 h
[5] = tested on: HCC1954 basal breast cancer cell line; settings: Homo sapiens, HCC1954, 120 h
[6] = read-out: Cell Line GI50 Range MDA-MB-468
[7] = read-out: Cell Line GI50 Range MCF-7
[8] = read-out: Cell Line GI50 Range HCC-1954
[9] = read-out: Cell Line GI50 Range MCF-7, MCF-7 luminal breast cancer cell line, SRB assay, 5 days
[10] = read-out: Cell Line GI50 Range HCC-1954, HCC1954 basal breast cancer cell line, SRB assay, 5 days
[11] = read-out: Cell Line GI50 Range MDA-MB-468, MDA-MB-468 basal breast cancer cell line, SRB assay, 5 days

| GI50 [1, 6] [nM] | GI50 [2] [nM] | GI50 [3] [nM] | GI50 [4, 7] [nM] | GI50 [5, 8] [nM] | GI50 [4, 9] [nM] | GI50 [5, 10] [nM] | SMILES | GI50 [1, 11] [nM] |
| --- | --- | --- | --- | --- | --- | --- | --- | --- |
| < 100 | 1000 to 10000 | < 100 | < 100 | 1000 to 10000 |  |  | COc1ccc2c(c1)[C@]1(C[C@H]1c1ccc3c(-c4ccc(CN5CCN(C)CC5)cc4)n[nH]c3c1)C(=O)N2 (relative stereo) [Example A140, (1R*,2S*)-5′-methoxy-2-(3-(4-((4-methylpiperazin-1-yl)methyl)phenyl)-1H-indazol-6-yl)spiro[cyclopropane-1,3′-indolin]-2′-one bis-2,2,2-trifluoroacetate] |  |
| 1000 to 10000 | > 10000 | > 10000 | 1000 to 10000 | > 10000 |  |  | COc1ccc2c(c1)[C@]1(C[C@H]1c1ccc3c(-c4cccc(C(=O)N5CCN(C)CC5)c4)n[nH]c3c1)C(=O)N2 (relative stereo) [Example A149, (1R*,2S*)-5′-methoxy-2-(3-(3-(4-methylpiperazine-1-carbonyl)phenyl)-1H-indazol-6-yl)spiro[cyclopropane-1,3′-indolin]-2′-one 2,2,2-trifluoroacetate] |  |
| 100 to 1000 | 1000 to 10000 | 100 to 1000 |  |  | 100 to 1000 | > 10000 | COc1ccc2c(c1)[C@]1(C[C@H]1c1ccc3c(-c4ccc(CCN5CCOCC5)cc4)n[nH]c3c1)C(=O)N2 (relative stereo) [Example A159, (1R*,2S*)-5′-methoxy-2-(3-(4-(2-morpholinoethyl)phenyl)-1H-indazol-6-yl)spiro[cyclopropane-1,3′-indolin]-2′-one 2,2,2-trifluoroacetate] |  |
| < 100 | < 100 | < 100 | < 100 | 100 to 1000 |  |  | COc1ccc2c(c1)[C@]1(C[C@H]1c1ccc3c(/C=C/c4ccc(N5CCN(C)CC5)cc4)n[nH]c3c1)C(=O)N2 (relative stereo) [Example A174, (1R*,2S*)-(E)-5′-methoxy-2-(3-(4-(4-methylpiperazin-1-yl)styryl)-1H-indazol-6-yl)spiro[cyclopropane-1,3′-indolin]-2′-one 2,2,2-trifluoroacetate] |  |
| < 100 | < 100 | < 100 |  |  | < 100 | 100 to 1000 | COc1ccc2c(c1)[C@]1(C[C@H]1c1ccc3c(/C=C/c4ccc(CCN5CCOCC5)cc4)n[nH]c3c1)C(=O)N2 (relative stereo) [Example A178, (1R*,2S*)-(E)-5′-methoxy-2-(3-(4-(2-morpholinoethyl)styryl)-1H-indazol-6-yl)spiro[cyclopropane-1,3′-indolin]-2′-one 2,2,2-trifluoroacetate] |  |
| < 100 | < 100 | < 100 |  |  | < 100 | < 100 | COc1ccc2c(c1)[C@]1(C[C@H]1c1ccc3c(/C=C/c4ccc(N5CCNCC5)cc4)n[nH]c3c1)C(=O)N2 (relative stereo) [Example A182, (1R*,2S*)-5′-methoxy-2-(3-(4-(piperazin-1-yl)styryl)-1H-indazol-6-yl)spiro[cyclopropane-1,3′-indolin]-2′-one 2,2,2-trifluoroacetate] |  |
| < 100 | < 100 | < 100 | 100 to 1000 | > 10000 |  |  | COc1ccc2c(c1)[C@]1(C[C@H]1c1ccc3c(/C=C/c4csc(CN5CCOCC5)c4)n[nH]c3c1)C(=O)N2 (relative stereo) [Example A184, (1R*,2S*)-5′-methoxy-2-(3-((E)-2-(5-(morpholinomethyl)thiophen-3-yl)vinyl)-1H-indazol-6-yl)spiro[cyclopropane-1,3′-indolin]-2′-one 2,2,2-trifluoroacetate] |  |
| 100 to 1000 | < 100 | < 100 |  |  | 100 to 1000 | 1000 to 10000 | O=C1Nc2ccc(F)cc2[C@]12C[C@H]2c1ccc2c(/C=C/c3ccc(N4CCOCC4)nc3)n[nH]c2c1 (relative stereo) [Example A207, (1R*,2S*)-5′-fluoro-2-(3-((E)-2-(6-morpholinopyridin-3-yl)vinyl)-1H-indazol-6-yl)spiro[cyclopropane-1,3′-indolin]-2′-one 2,2,2-trifluoroacetate] |  |

The remaining lines, values behind:

| SMILES | GI50 [1, 6] [nM] | GI50 [2] [nM] | GI50 [3] [nM] | GI50 [4, 7] [nM] | GI50 [5, 8] [nM] | GI50 [4, 9] [nM] | GI50 [5, 10] [nM] | GI50 [1, 11] [nM] |
| --- | --- | --- | --- | --- | --- | --- | --- | --- |
| NS(=O)(=O)c1cccc(-c2n[nH]c3cc([C@@H]4C[C@@]45C(=O)Nc4ccccc45)ccc23)c1 (relative stereo) [Example A130, 3-(6-((1R*,2S*)-2′-oxospiro[cyclopropane-1,3′-indoline]-2-yl)-1H-indazol-3-yl)benzenesulfonamide] | 1000 to 10000 | > 10000 | > 10000 | 1000 to 10000 | > 10000 |  |  |  |
| COc1ccc2c(c1)[C@]1(C[C@H]1c1ccc3c(/C=C/c4cccc(CN5CCOCC5)c4)n[nH]c3c1)C(=O)N2 (relative stereo) [Example A133, (1R*,2S*)-5′-methoxy-2-(3-(3-(morpholinomethyl)styryl)-1H-indazol-6-yl)spiro[cyclopropane-1,3′-indolin]-2′-one 2,2,2-trifluoroacetate] | < 100 | 100 to 1000 | < 100 | < 100 | > 10000 |  |  |  |
| COc1ccc2c(c1)[C@]1(C[C@H]1c1ccc3c(/C=C/c4cccc(CN(C)C)c4)n[nH]c3c1)C(=O)N2 (relative stereo) [Example A135, (1R*,2S*)-2-(3-(3-((dimethylamino)methyl)styryl)-1H-indazol-6-yl)-5′-methoxyspiro[cyclopropane-1,3′-indolin]-2′-one 2,2,2-trifluoroacetate] | < 100 | 100 to 1000 | < 100 |  |  | < 100 | > 10000 |  |
| COc1ccc2c(c1)[C@]1(C[C@H]1c1ccc3c(/C=C/c4ccc(N5CCNCC5)nc4)n[nH]c3c1)C(=O)N2 (relative stereo) [Example A163, (1R*,2S*)-5′-methoxy-2-(3-((E)-2-(6-(piperazin-1-yl)pyridin-3-yl)vinyl)-1H-indazol-6-yl)spiro[cyclopropane-1,3′-indolin]-2′-one 2,2,2-trifluoroacetate] | < 100 | < 100 | < 100 |  |  | < 100 | 1000 to 10000 |  |
| CN1CCN(c2ccc(-c3n[nH]c4cc([C@@H]5C[C@@]56C(=O)Nc5ccc(F)cc56)ccc34)cn2)CC1 (relative stereo) [Example A210, 1R*,2S*1-5′-fluoro-2-(3-(6-(4-methylpiperazine-1-yl)pyridine-3-yl)-1H-indazol-6-yl)-spiro[cyclopropane-1,3′-indolin]-2′-one] |  | 100 to 1000 | 100 to 1000 | 100 to 1000 |  |  | 1000 to 10000 | 100 to 1000 |
| COc1ccc2c(c1)[C@]1(C[C@H]1c1ccc3c(I)n[nH]c3c1)C(=O)N2 [Example A7, (1R,2S)-2-(3-iodo-1H-indazol-6-yl)-5′-methoxyspiro[cyclopropane-1,3′-indolin]-2′-one] | 100 to 1000 | 100 to 1000 | 100 to 1000 | 100 to 1000 | 100 to 1000 |  |  |  |
| COc1ccc2c(c1)[C@@]1(C[C@@H]1c1ccc3c(-c4ccc(N5CCN(C)CC5)nc4)n[nH]c3c1)C(=O)N2 [Example A15, (1S,2R)-5′-methoxy-2-(3-(6-(4-methylpiperazin-1-yl)pyridin-3-yl)-1H-indazol-6-yl)spiro[cyclopropane-1,3′-indolin]-2′-one] |  | 1000 to 10000 | 1000 to 10000 | 1000 to 10000 |  |  | 1000 to 10000 | 1000 to 10000 |
| COc1ccc2c(c1)[C@]1(C[C@H]1c1ccc3c(-c4ccc(OCCN5CCOCC5)cc4)n[nH]c3c1)C(=O)N2 [Example A68, (1R,2S)-5′-methoxy-2-(3-(4-(2-morpholinoethoxy)phenyl)-1H-indazol-6-yl)spiro[cyclopropane-1,3′-indolin]-2′-one 2,2,2-trifluoroacetate salt] | < 100 | < 100 | < 100 | < 100 | < 100 |  |  |  |
| COc1ccc2c(c1)[C@]1(C[C@H]1c1ccc3c(-c4ccc5c(c4)CN(C)CC5)n[nH]c3c1)C(=O)N2 [Example A70, (1R,2S)-5′-methoxy-2-(3-(2-methyl-1,2,3,4-tetrahydroisoquinolin-7-yl)-1H-indazol-6-yl)spiro[cyclopropane-1,3′-indolin]-2′-one 2,2,2-trifluoroacetate salt] | 100 to 1000 | 1000 to 10000 | 100 to 1000 | 1000 to 10000 | 1000 to 10000 |  |  |  |
| COc1ccc2c(c1)[C@]1(C[C@H]1c1ccc3c(/C=C/c4ccc(CN5CCCOCC5)cc4)n[nH]c3c1)C(=O)N2 [Example A73, (1R,2S)-(E)-2-(3-(4-((1,4-oxazepan-4-yl)methyl)styryl)-1H-indazol-6-yl)-5′-methoxyspiro[cyclopropane-1,3′-indolin]-2′-one 2,2,2-trifluoroacetate salt] | < 100 | < 100 | < 100 | 1000 to 10000 | 1000 to 10000 |  |  |  |
| CN1CCc2cc(/C=C/c3n[nH]c4cc([C@@H]5C[C@@]56C(=O)Nc5ccccc56)ccc34)ccc2C1 [Example A74, (1R,2S)-2-(3-((E)-2-(2-methyl-1,2,3,4-tetrahydroisoquinolin-6-yl)vinyl)-1H-indazol-6-yl)spiro[cyclopropane-1,3′-indolin]-2′-one 2,2,2-trifluoroacetate salt] | < 100 | < 100 | < 100 | 1000 to 10000 | 1000 to 10000 |  |  |  |
